The whole screen tested about 110,000 compounds, of which about 40 (0.04%) were called active. Inconclusive means that the source gave no clear call. Such entries were picked first, then a sample of the others. The call rests on the fitted dose curve; in most records, active means well fitted curve in the direction sought with a large enough effect in the signal ratio (not every such curve was filed as active); inconclusive means small, poorly fitted or top-dose-only effect, or a change in a side signal; inactive means flat fitted curve, though single readings scatter; the % refers to the signal ratio. Potencies of inconclusive entries are doubtful fits and often do not repeat.
Assay: IkB Signaling
Conditions: ABC-DLBCL IkBa-CBG/CBR dual luciferase ratio (green luciferase fused to IkBa over red control in OCI-Ly3 lymphoma cells), 4 h; IkBa stabilization activation: at 57.1 µM (top of the series), scaled: untreated 0%, proteasome inhibitor 100% unless noted
In short: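 Curves were fitted separately to fusion (green), unfused (red) and ratio luminescence, then classed by r2, magnitude and activity. Cells: OCI-Ly3, 4 h compound plus doxycycline at 37C; 10 uM MG-132 defined full response.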
Potency means the concentration at half of the fitted maximal effect.

SMILES | IkBa stabilization activation | Potency
O=C(Cc1ccc(F)cc1)N1CCC(c2nc3c(nnn3Cc3ccc(F)cc3)c(=O)[nH]2)CC1 | inconclusive: 4.15% [signal inhibitor] | –
Cc1ccc(O)c(N)c1 | – | inconclusive: 31.6 µM [rising, partial curve]
O=C(NCCSCc1ccccc1Cl)C1CCN(S(=O)(=O)Cc2ccccc2)CC1 | inactive | –
COc1ccc(CC(=O)N2CC(=O)Nc3ccc(Br)cc3C2c2ccc(F)cc2)cc1 (configuration not stated) | inconclusive: 6.53% [signal inhibitor] | –
Cc1ccc(CN(C(=O)COc2ccc(C(C)C)cc2)C2CCS(=O)(=O)C2)o1 (configuration not stated) | inactive | –
CCCCNc1nc(Oc2ccc(OCCC)nn2)nc(N(C)C)n1 | inconclusive: 2.35% [signal inhibitor] | –
COc1ccc(OC)c(CCNC(=O)CN2C(=O)COc3ccc(S(=O)(=O)N4CCC(C)CC4)cc32)c1 | inconclusive: -1.59% [signal inhibitor] | –
COc1ccc(Cn2nnnc2CN2CCC(c3nc4ccccc4s3)CC2)cc1 | inconclusive: 0.953% [signal inhibitor] | –
O=C(CCSCc1ccccc1F)N1CCN(c2ccc(Cl)cc2)CC1 | inconclusive: 0.359% [signal inhibitor] | –
Cc1nn(-c2ccc(N3CCCC3)nn2)c(C)c1CCC(=O)NCc1ccccc1F | inactive | –
CC(C)NC[C@@H](O)c1ccc(O)c2ncccc12 | inactive: 2.05% [at 11.4 µM, scaled: untreated 0%, proteasome inhibitor 100%] | –
COc1cc2c(C(=O)Nc3ccc(C)cc3Br)cn(C)c(=O)c2cc1OC | inconclusive: 2.92% [signal inhibitor] | –
CCOC(=O)c1ccc(NC2=CC(c3ccc(O)c(OCC)c3)N(c3ccc(C(=O)OCC)cc3)C2=O)cc1 (configuration not stated) | inactive | –
CCCN1CCN(CCNC(=O)Nc2cc(C)ccc2OC)CC1 | inconclusive: -0.107% [signal inhibitor] | –
CCOc1ccccc1NC(=O)c1sc2nc(-c3ccc(OC)cc3)ccc2c1N | inactive | –
COc1ccc(-n2c(/C=C/c3cccc4ccccc34)nc3ccccc3c2=O)cc1Cl | inconclusive: 1.82% [signal inhibitor] | –
FC(F)(F)c1cnc2c(c1)Nc1ccccc1S2 | inconclusive: 1.34% [signal inhibitor] | –
CC(C)(C)c1ccc(C(=O)NC(Cc2c[nH]c3ccccc23)C(=O)OCC(=O)c2ccccc2)cc1 (configuration not stated) | inconclusive: 0.149% [signal inhibitor] | –
CC(=O)N1CCC2(CC1)CCN(c1cccc(-c3ccccc3)c1)CC2 | inactive: 3.11% [at 11.4 µM, scaled: untreated 0%, proteasome inhibitor 100%] | –
Cc1ccc2cc3c(NC(=O)C(C)C)nn(C)c3nc2c1 | inactive | –
COc1ccc(Cn2c(=O)[nH]c3cc(C(=O)N4CCN(c5cccc(OC)c5)CC4)ccc3c2=O)cc1 | inconclusive: 2.34% [signal inhibitor] | –

SMILES | IkBa stabilization activation | Potency
Cn1cc(C(=O)NCc2ccc(Cl)cc2)c(=O)c2cc(S(=O)(=O)N3CCCCCC3)ccc21 | inconclusive: 0.953% [signal inhibitor] | –
COc1ccc(Nc2cc(C)nc3ncnn23)c(OC)c1 | inactive | –
Cc1cccc(OCC(=O)Nc2ccc(-c3nc4cc(C)ccc4o3)c(O)c2)c1 | inactive | –
CCC1CN(C(=O)N2CCC(C(=O)NCCC3=CCCCC3)CC2)c2cc(C)ccc2O1 (configuration not stated) | inconclusive: 3.61% [signal inhibitor] | –
C[C@@H]1C(=O)O[C@H]2[C@@H](O)[C@@]34[C@H]5C[C@H](C(C)(C)C)[C@@]36[C@H](OC(=O)[C@@H]6O)O[C@@]4(C(=O)O5)[C@@]12O | inactive: -0.186% [at 11.4 µM, scaled: untreated 0%, proteasome inhibitor 100%] | –
CCn1cc2nc(SCc3ccc(C)cc3)n(CCc3ccccc3)c(=O)c2n1 | inconclusive: 2.77% [signal inhibitor] | –
Cc1ccc(OCC(=O)Nc2ccc(Cl)c(-c3nc4ccccc4[nH]3)c2)cc1C | inconclusive: 9.42% [signal inhibitor] | –
C(=N\n1cnnc1)/c1cccc(OCCOc2ccccc2)c1 | inconclusive: 7.86% [signal inhibitor] | –
COc1ccc(C)cc1NC(=O)C(=O)NCC1(c2ccccc2)CCCC1 | inconclusive: -1.68% [signal inhibitor] | –
CCCCSCCCNC(=O)CN1C(=O)COc2ccc(S(=O)(=O)N3CCC(C)CC3)cc21 | inactive | –
Cc1ccc(C(=O)Nc2ccc(C(=O)OCc3cc(=O)n4ccsc4n3)cc2)cc1 | inactive | –
CC(C)(C)c1ccc(C2NC(=O)c3n[nH]c(-c4cccs4)c32)cc1 (configuration not stated) | inconclusive: 2.19% [signal inhibitor] | –
Cc1ccc(NC(=O)Cn2c(CCC(=O)O)ccc2-c2ccc(Cl)cc2)cc1 | inconclusive: 5.91% [signal inhibitor] | –
CCOc1cc2[nH]c(=O)n(CC3CCC(C(=O)NCCC(C)C)CC3)c(=O)c2cc1OCC (configuration not stated) | inactive | –
Cc1ccc(Cn2cc(CCC(=O)NCc3ccccc3F)c3ccccc32)cc1 | inconclusive: -0.747% [signal inhibitor] | –
O=S(=O)(c1ccccc1)N1CCC2(CC1)CN(c1ccncc1)C2 | inactive: -0.832% [at 11.4 µM, scaled: untreated 0%, proteasome inhibitor 100%] | –
O=C(Nc1ccccc1)N1CCN2C(=O)c3ccccc3C12c1ccccc1 (configuration not stated) | inconclusive: -2.39% [signal inhibitor] | –
Cn1c(=O)n(Cc2ccccc2)c(=O)c2c1nc1n2CCCN1Cc1ccccc1 | inconclusive: 6.08% [signal inhibitor] | –
Cc1cc(C)c2c(n1)SCCN2C(=O)Nc1ccc(C(=O)Nc2cc(Cl)ccc2C)cc1 | inconclusive: 0.936% [signal inhibitor] | –
CCC1(c2cccc(Cl)c2)NC(=O)N(Cc2cc(C(=O)OC)c(C)o2)C1=O (configuration not stated) | inconclusive: -1.16% [signal inhibitor] | –
Cc1ccnc(NC(=O)CCC2COc3ccccc3O2)c1 (configuration not stated) | inconclusive: 0.0713% [signal inhibitor] | –

Reference: PubChem BioAssay AID445 (National Center for Advancing Translational Sciences (NCATS), 2006)
